# Test results reported in the supplement of paper PMC11348887.
# Counter-ions that a name gives are not always drawn. The list shows a part of the results. No stated cut-off is given here; in the data, active = -2 or less and inactive = the rest. Many values rest on one well or one pass, so single values are uncertain.
# Test system: hPSC-derived cortical neurons (WA09)
# Assay: nuclei number (viability) z-score; higher = more surviving cells
# Details: 5 µM; treatment: days 7-14 after plating, readout day 21
# 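Further: nuclei counted from DAPI counterstain by automated high-content image analysis, four fields per well at ×20 in 384-well plates, with sequential b-score then z-score normalization.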
row,Compound,nuclei number (z-score)
1,CC(C)Nc1cc(-c2c[nH]c(C(=O)N[C@H](CO)c3cccc(Cl)c3)c2)c(Cl)cn1,inactive: 0.0805
2,CNC[C@@H](O)c1ccc(O)c(O)c1 [L-Adrenaline],inactive: 3.23
3,COc1cc(F)c(C(C)C)cc1-c1ccc(C(F)(F)F)cc1CN1C(=O)O[C@H](c2cc(C(F)(F)F)cc(C(F)(F)F)c2)[C@@H]1C [Anacetrapib (MK-0859)],inactive: -0.845
4,CO[C@H]1/C=C/O[C@@]2(C)Oc3c(C)c(O)c4c(O)c(c(/C=N/N5CCN(C)CC5)c(O)c4c3C2=O)NC(=O)/C(C)=C\C=C\[C@H](C)[C@H](O)[C@@H](C)[C@@H](O)[C@@H](C)[C@H](OC(C)=O)[C@@H]1C [Rifampin],inactive: -1.73
5,Cc1c(Cl)cccc1Nc1ccccc1C(=O)O [Tolfenamic Acid],inactive: -0.103
6,CCCSc1ccc2[nH]c(NC(=O)OC)nc2c1 [Albendazole],inactive: 0.312
7,COC(=O)[C@H](c1ccccc1Cl)N1CCc2sccc2C1 [Clopidogrel],inactive: -0.65
8,COCCCC/C(=N\OCCN)c1ccc(C(F)(F)F)cc1 [Fluvoxamine maleate],inactive: -0.167
9,CN(C)[C@@H]1C(O)=C(C(N)=O)C(=O)[C@@]2(O)C(O)=C3C(=O)c4c(O)cccc4[C@@](C)(O)[C@H]3C[C@@H]12 [Tetracycline HCl],inactive: -1.08
10,O=C(Nc1cc(C(F)(F)F)cc(C(F)(F)F)c1)c1cc(Cl)ccc1O,inactive: 0.0251
11,NC(=O)N1CCC(CC(=O)N2CCC([C@H]3c4ncc(Br)cc4CCc4cc(Cl)cc(Br)c43)CC2)CC1 [Lonafarnib],inactive: -0.716
12,C[C@H](N[C@@H](CCc1ccccc1)C(=O)O)C(=O)N1CCC[C@H]1C(=O)O [Enalaprilat Dihydrate],inactive: -0.603
13,CS(=O)(=O)c1ccc(C(=O)Nc2ccc(Cl)c(-c3ccccn3)c2)c(Cl)c1 [Vismodegib (GDC-0449)],inactive: 0.187
14,"Cc1ccc2c(c1)C(=O)C1(O)CCN(c3ccccc3)C1=N2 (single isomer, unassigned; (-)) [(-)-Blebbistatin]",inactive: 6.44
15,CC(C)C[C@H](NC(=O)[C@H](Cc1ccccc1)NC(=O)c1cnccn1)B(O)O [Bortezomib (PS-341)],active: -2.65
16,COc1ccc(CC(C)NCC(O)c2ccc(O)c(NC=O)c2)cc1 (configuration not stated) [Formoterol Hemifumarate],inactive: -1.49
17,Nc1ccc2ncnc(NCCc3ccc(Oc4ccccc4)cc3)c2c1,inactive: 0.102
18,Oc1c(Br)cc(Br)c2cccnc12 [Broxyquinoline],inactive: 1.25
19,COc1ccc(-c2coc3cc(O)ccc3c2=O)cc1 [Formononetin],inactive: 0.483
20,CN1CCN(S(=O)(=O)c2ccc(-c3cnc(N)c(C(=O)Nc4cccnc4)n3)cc2)CC1,inactive: -0.213
21,CNc1nc(-c2ccc3c(N)n[nH]c3c2)cc(N2C[C@@H](C(=O)NC3CCCCC3)CC[C@H]2C)n1,inactive: -0.335

row,Compound,nuclei number (z-score)
1,Nc1nc(F)nc2c1ncn2[C@@H]1O[C@H](COP(=O)(O)O)[C@@H](O)[C@@H]1O [Fludarabine Phosphate],active: -4.19
2,O=C(NOCC1CC1)c1ccc(F)c(F)c1Nc1ccc(I)cc1Cl,inactive: 1.31
3,CCOC(=O)N1CCC(=C2c3ccc(Cl)cc3CCc3cccnc32)CC1 [Loratadine],inactive: -0.639
4,CC1(C)CCC(c2ccc(Cl)cc2)=C(CN2CCN(c3ccc(C(=O)NS(=O)(=O)c4ccc(N[C@H](CCN5CCOCC5)CSc5ccccc5)c(S(=O)(=O)C(F)(F)F)c4)cc3)CC2)C1 [ABT-263 (Navitoclax)],active: -4.47
5,O=C(COc1ccc(C(=O)c2ccccc2)cc1)NC1CCN(Cc2ccccc2)CC1 [AdipoRon],inactive: 1.04
6,O=C1NC(=O)C(c2ccccc2)(c2ccccc2)N1 [Phenytoin],inactive: 0.242
7,CC(C)(O)c1ccccc1CC[C@@H](SCC1(CC(=O)O)CC1)c1cccc(/C=C/c2ccc3ccc(Cl)cc3n2)c1 [Montelukast Sodium],inactive: 0.198
8,O=C1NC(=O)C(=Cc2ccc(-c3ccc(F)cc3)o2)S1 (stereo in doubt),inactive: 0.32
9,CCN[C@@H]1C[C@H](N)[C@@H](O[C@H]2OC(CN)=CC[C@H]2N)[C@H](O)[C@H]1O[C@H]1OC[C@](C)(O)[C@H](NC)[C@H]1O [Netilmicin Sulfate],inactive: 4.29
10,OC[C@@H](O)[C@@H](O)[C@@H](O)CO [Ribitol],inactive: -0.39
11,O=C(Nc1ccccc1)Nc1ccc(-c2ccc(C(=O)[C@@H]3CCC[C@H]3C(=O)O)cc2)cc1,inactive: 1.97
12,CN(C)C/C=C/C(=O)Nc1cc2c(Nc3ccc(F)c(Cl)c3)ncnc2cc1O[C@H]1CCOC1 [Afatinib (BIBW2992) Dimaleate],active: -5.62
13,CN(C)C/C=C/C(=O)Nc1cc2c(Nc3ccc(F)c(Cl)c3)ncnc2cc1O[C@H]1CCOC1 [Afatinib (BIBW2992)],inactive: -0.48
14,NC(=O)[C@@H]1CCCN1C(=O)[C@H](Cc1c[nH]cn1)NC(=O)[C@@H]1CCC(=O)N1 [Protirelin],inactive: 1.74
15,O=C(NOCC(O)CO)c1cc(Br)c(F)c(F)c1Nc1ccc(I)cc1F (configuration not stated),inactive: 0.0423
16,CN(C)CC(c1ccc(O)cc1)C1(O)CCCCC1 (configuration not stated) [Desvenlafaxine Succinate],inactive: 0.73
17,CN(C)CC(c1ccc(O)cc1)C1(O)CCCCC1 (configuration not stated) [Desvenlafaxine],inactive: -0.224
18,COc1ccc(S(=O)(=O)N(CCO)c2ccccc2CN(C)C/C=C/c2ccc(Cl)cc2)cc1 [KN-93 Phosphate],inactive: -1.1
19,O=C(Nc1ccccc1Br)N[C@@H]1CCN(c2ccc(C(F)(F)F)cn2)C1,inactive: 0.0847
20,CCN(CC)CCCC(C)Nc1nc(C)cc(Nc2ccc3nc(C)cc(N)c3c2)n1 (configuration not stated),inactive: -0.222
21,O=C(c1ccccc1)c1ccc2n1CCC2C(=O)O (configuration not stated) [Ketorolac],inactive: -0.994
